Experimental data from PubChem BioAssay AID1346428 (National Center for Advancing Translational Sciences (NCATS), 2018).
Screen size: about 48,000 compounds; about 1,200 (2.5%) were called active. Inconclusive results (about 2%) are left out.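 Rule for the calls: active = activation of at least 60% and not above a set upper limit (about 1 call in 100 departs from these limits); inconclusive = activation of 40% to 60%, or above that upper limit; inactive = activation under 40%.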 The list shows a part of the results.

What follows are compounds tested against Probable G-protein coupled receptor 32 (Homo sapiens) (UniProt O75388) (assay: qHTS for Agonists of Human Resolvin D1 Receptor DRV1). Details: CHO-K1 GPR32 beta-arrestin PathHunter luminescence, 90 min; at 76.9 µM; active compounds read high; zero percent set by DMSO-only wells.
How it was run: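 Beta-arrestin recruitment read-out: luminescence from complemented beta-Gal in CHO-K1 GPR32 PathHunter cells, measured 1 h after detection reagent at ambient temperature following 90 min compound exposure at 37 °C; DMSO served as basal (EC0) control.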
Note: 0% is about no effect.

UniProt O75388, sequence (O75388 whole entry, looked up): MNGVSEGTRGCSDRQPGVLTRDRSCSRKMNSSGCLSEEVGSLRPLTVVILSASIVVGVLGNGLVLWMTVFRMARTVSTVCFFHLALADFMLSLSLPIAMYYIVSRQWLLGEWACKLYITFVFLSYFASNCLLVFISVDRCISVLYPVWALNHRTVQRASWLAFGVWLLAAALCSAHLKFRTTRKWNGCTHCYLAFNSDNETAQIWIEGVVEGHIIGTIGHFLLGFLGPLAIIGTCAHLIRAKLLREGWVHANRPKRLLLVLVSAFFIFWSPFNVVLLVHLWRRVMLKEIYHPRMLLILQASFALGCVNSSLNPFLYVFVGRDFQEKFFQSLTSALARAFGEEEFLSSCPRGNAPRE

Compound | activation
CC(Sc1nc(=O)cc(N)n1CCc1ccccc1)C(=O)Nc1ccc(Cl)cc1 (stereo not drawn) | inactive: -13.4%
Cc1cccc(CN2CCC(CNC(=O)c3c(C)oc4ncnc(N5CCCCC5)c34)CC2)c1 | inactive: -1.87%
COc1ccc(CNC(=O)c2ccc(N3CCCC3)c(NC(=O)NCc3ccc(C)cc3)c2)cc1 | inactive: -24.7%
Cc1nn2c(-c3cccc(NC(=O)c4ccccc4)c3)nnc2c2ccccc12 | inactive: 14.7%
COc1ccc(-c2cn3c(n2)sc2cc(C(=O)Nc4ccc(C)c(C)c4)ccc23)cc1 | inactive: 1.83%
Cc1cccc(N2CCN(C(=O)CCc3nnc4n(CC(C)C)c(=O)c5ccccc5n34)CC2)c1C | inactive: -2.98%
COc1ccc(-c2cc(C)no2)cc1S(=O)(=O)N1CCOc2ccccc21 | inactive: -24.2%
O=C(Cc1ccccc1)N(Cc1cccnc1)c1nc2c(F)cc(F)cc2s1 | inactive: -16.2%
O=C(Nc1cc(Cl)cc(Cl)c1)c1ccc(F)c(S(=O)(=O)N2CCc3ccccc32)c1 | inactive: -5.85%
COc1ccc(CCNC(=O)c2ccc3c(c2)N(Cc2c(F)cccc2Cl)C(=O)CS3)cc1OC | inactive: -18.9%
O=C(Nc1ccc(F)cc1)c1oc2ccccc2c1NC(=O)C12CC3CC(CC(C3)C1)C2 | inactive: -2.51%
Cc1cccc(OC(=O)CSc2nnc(CNC(=O)c3ccccc3)o2)c1C | inactive: -8.88%
CCc1ccccc1NC(=O)CN(Cc1ccccc1)S(=O)(=O)c1ccc(Br)cc1 | inactive: -1.75%
CC(C)c1ccc(OCC(=O)NC(Cc2c[nH]c3ccccc23)C(=O)O)cc1 (stereo not drawn) | inactive: 8.31%
CCOC(=O)c1c(C)oc2ccc(N(C(=O)Oc3ccccc3)S(=O)(=O)c3ccc(CC)cc3)cc12 | inactive: -14.5%
COc1cccc(NC(=O)CSC2=Nc3ccccc3C3=NC(CC(=O)NC4CCCCC4)C(=O)N23)c1 (stereo not drawn) | inactive: -21.9%
CCOC(=O)c1c(C)[nH]c(C)c1S(=O)(=O)N1CCC(C(=O)N2CCN(c3ccccc3F)CC2)CC1 | inactive: -7.26%
COc1ccc(NC(=O)C(C)n2nc(-c3ccc(C)c(C)c3)ccc2=O)cc1OC (stereo not drawn) | inactive: -6.46%
CCc1nnc(SCc2cc(C)ccc2C)c2cc3sc(C)cc3n12 | inactive: -18.1%
Cc1ccc2c(c1)-c1cc(C)nn1C(c1cc(Br)ccc1O)N2 (stereo not drawn) | inactive: -17.3%
COc1cc(OC)c(OC)cc1/C=C/c1nc2cc3ccccc3cc2c(=O)n1-c1ccc(F)cc1F | inactive: -5.77%
COc1ccc(C2CC(=O)c3cc(-c4nc(-c5ccc(Cl)cc5)c(C)s4)c(=O)[nH]c3C2)cc1 (stereo not drawn) | inactive: 25.2%
Cc1ccc(-n2c(SCc3cccc(F)c3)nc3[nH]ncc3c2=O)cc1C | inactive: -24.2%
N=C(N)c1ccccc1 | inactive: 13.5%
Cc1ccc2ncc(C(=O)Nc3ccc(F)cc3F)c(=O)n2c1 | inactive: -4.38%
COC(=O)c1ccc2c(=O)n(CCCCCC(=O)NCc3ccc(Cl)cc3)c(=O)[nH]c2c1 | inactive: -33.3%
O=S(=O)(Nc1nc2n(n1)C(c1ccc(F)cc1)C=C(c1ccccc1)N2)c1ccccc1 (stereo not drawn) | active: 96%

Compound | activation
Cc1cc(NC(=O)CCS(=O)(=O)c2cc3c4c(c2)CCN4C(=O)CC3)ccc1Br | inactive: -38.4%
CC(C)(C)c1ccc(C(=O)NCC(c2cccs2)S(=O)(=O)c2ccccc2)cc1 (stereo not drawn) | inactive: -6.49%
CCc1ccc(CNC(=O)c2ccc(NC(=O)N3CC(C)Sc4ccccc43)cc2)cc1 (stereo not drawn) | inactive: -27.4%
Cc1cc(C)c2c(=O)cc(C(=O)Nc3ccccc3C(F)(F)F)oc2c1 | inactive: -5.67%
CC(=O)c1ccc(N2CCN(c3ccc(NC(=O)c4ccc(F)cc4)cc3C(=O)O)CC2)cc1 | inactive: 8.74%
O=C(Cn1c(SCc2cccc(F)c2)nc2cccnc21)Nc1ccc(F)c(Cl)c1 | inactive: 0.465%
CC(=O)c1ccc(NC(=O)CCc2c(C)nc3c(c(C)nn3-c3ccc(C)cc3)c2C)cc1 | inactive: -6.04%
COc1ccccc1NC(c1ccc(Cl)cc1)c1nnc(-c2cccc(F)c2)o1 (stereo not drawn) | inactive: -31.6%
Cc1nn2c(=O)cc(CN(C)c3ccccc3)nc2s1 | inactive: -7.97%
CCOc1ccc(-c2nonc2NC(=O)c2oc3ccc(F)cc3c2C)cc1 | inactive: 22.8%
CC(C)(C)c1ccc(Cn2c(Cc3ccccc3)nc3ccccc32)cc1 | inactive: -42.9%
O=C(COc1ccccc1Cl)Nc1cc(-c2ccccc2F)nn1-c1ccccc1 | inactive: 10.3%
Cc1cc(C)cc(NC(=O)CN(c2cc(C(F)(F)F)ccc2Cl)S(=O)(=O)c2ccccc2)c1 | inactive: 10.6%
COc1ccc(C2c3c(oc4ccccc4c3=O)C(=O)N2Cc2ccc3c(c2)OCO3)cc1 (stereo not drawn) | inactive: -2.94%
COC(=O)c1ccccc1NC(=O)C1=CC(c2ccc(C)cc2)=NS(=O)(=O)N1C | inactive: -8.42%
O=C(CCS(=O)(=O)c1nc(-c2cccs2)cc(C(F)(F)F)n1)Nc1ccc(OC(F)(F)F)cc1 | inactive: -44.2%
COc1ccc(OC)c(NC(=O)c2cc3c(n(-c4ccc(Cl)cc4)c2=O)CC(C)(C)CC3=O)c1 | inactive: 2.57%
CCN(CC)CCSC(=O)C(c1ccccc1)c1ccccc1 | inactive: -31.1%
COc1cccc(-c2nn(C)c3sc(C(=O)NCc4cc(OC)ccc4OC)cc23)c1 | inactive: -11.1%
O=C(CN1CCN(Cc2ccc(F)cc2)C1=O)NCc1ccccc1Cl | inactive: 10.1%
Cc1cccc(C(=O)Nc2sc3c(c2C(=O)N2CCCCC2)CCC(C)C3)c1 (stereo not drawn) | inactive: -15.2%
CC(=O)N1CCOc2cc(S(=O)(=O)NC(C)c3ccccc3)c(Cl)cc21 (stereo not drawn) | inactive: 16.7%
O=C(CCc1cn(Cc2ccc(F)cc2)c2ccccc12)NCCc1ccc(Cl)cc1 | inactive: -27.1%
Cc1oc2ccc(O)c(CN(C)Cc3ccccc3)c2c1C(=O)Nc1ccccc1 | inactive: -11.9%
CCN(CC)CC#CCOC(=O)C(O)(c1ccccc1)C1CCCCC1 (stereo not drawn) | inactive: -14.8%
CCN(CC)CCNC(=O)c1c(C)oc2ncn(C)c(=O)c12 | inactive: -9.08%
